Laboratory results taken from PubChem BioAssay (NCI).
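Growth conditions: 96-well plates. Treatment: test compound, 48 hours, 5 concentrations. Analysis: linear interpolation between bracketing concentrations; unreached endpoints set to highest concentration. GI50 marks 50% less growth. TGI: total growth inhibition.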

system: NCI-H322M lung; assay: NCI-60 cell line screen, 48 h

Going from COC[C@@H](CC(C)C)N=C1N/C(=C\c2ccc3ncsc3c2)C(=O)N1C to CC(=O)c1ccc(Nc2nc(SC(C)C)nc(-c3ccccc3)c2C#N)cc1, the GI50 rises from 2.32 µM to 11.7 µM (5-fold).

With O/N=C(\CSc1nnc(-c2c[nH]c3ccccc23)n1-c1ccccc1)c1ccc(Br)cc1 the GI50 was 4.8 µM.

COC[C@@H](CC(C)C)N=C1N/C(=C\c2ccc3ncsc3c2)C(=O)N1C and CC(=O)c1ccc(Nc2nc(SC(C)C)nc(-c3ccccc3)c2C#N)cc1 cannot be ordered by TGI: > 100 µM for the first, > 100 µM for the second.

For O/N=C(\CSc1nnc(-c2c[nH]c3ccccc23)n1-c1ccccc1)c1ccc(Br)cc1, the TGI was 24.2 µM.
